Source: paper PMC11995724, “Antibiotic target discovery by integrated phenotypic and activity-based profiling of electrophilic fragments” (Cell chemical biology, 2025)
The whole screen tested about 3,200 compounds, of which about 110 (3.4%) showed an effect of 50% or more. The list shows a part of the results.

What follows are molecules tested on T1, V. cholerae SAD30. Details: relative growth, OD600, LB; 25 µM; inhibitor.
T1 construct: SAD30
Parameters: species or system S. aureus MSSA476 (TSB) or V. cholerae SAD30 (LB); 384-well bacterial growth screen at 25 uM, OD600 relative to DMSO control

In order of rising “% of control remaining” value:
1. O=C1C=CC(=O)N1c1cccc(O)c1 [10-O07, 1-(3-hydroxyphenyl)-2,5-dihydro-1H-pyrrole-2,5-dione]  26.4952%
2. O=C1C=CC(=O)N1c1ccccc1Sc1ccc(Cl)cc1 [10-A03, 1-{2-[(4-chlorophenyl)sulfanyl]phenyl}-2,5-dihydro-1H-pyrrole-2,5-dione]  28.6772%
3. Cn1c(=O)oc2cc(C(=O)CCl)ccc21 [10-F07, 6-(2-chloroacetyl)-3-methyl-2,3-dihydro-1,3-benzoxazol-2-one]  44.886%
4. CCn1cc(N2C(=O)C=CC2=O)cn1 [10-I21, 1-(1-ethyl-1H-pyrazol-4-yl)-2,5-dihydro-1H-pyrrole-2,5-dione]  56.731%
5. N#CC(=Cc1cc(F)ccc1F)C(=O)Nc1ccc2c(c1)OCCO2 [8-I10, 2-cyano-3-(2,5-difluorophenyl)-N-(2,3-dihydro-1,4-benzodioxin-6-yl)prop-2-enamide]  69.4086%
6. O=C(CCl)Nc1ccccc1Sc1ccc(Cl)cc1 [4-O13, 2-chloro-N-{2-[(4-chlorophenyl)sulfanyl]phenyl}acetamide]  72.9782%
7. CC(C)NC(=O)C(C#N)=Cc1ccc(OC(C)C)cc1 [8-G12, 2-cyano-N-(propan-2-yl)-3-[4-(propan-2-yloxy)phenyl]prop-2-enamide]  74.983%
8. CCCCNC(=O)C(C#N)=Cc1c(Cl)cccc1Cl [9-J11, N-butyl-2-cyano-3-(2,6-dichlorophenyl)prop-2-enamide]  75.5269%
9. CN(C)c1ccc(C=C(C#N)C(=O)Nc2ccccc2C(=O)O)cc1 [9-I08, 2-{2-cyano-3-[4-(dimethylamino)phenyl]prop-2-enamido}benzoic acid]  78.3821%
10. CC(Cl)C(=O)N1CCN(Cc2ccc3ccccc3n2)CC1 (stereo not shown) [7-A15, 2-chloro-1-{4-[(quinolin-2-yl)methyl]piperazin-1-yl}propan-1-one]  80.0925%
11. COc1ccc(C=C(C#N)C(=O)Nc2ccc(Cl)cc2Cl)cc1 [8-K03, 2-cyano-N-(2,4-dichlorophenyl)-3-(4-methoxyphenyl)prop-2-enamide]  80.5574%
12. N#CC(=Cc1c(Cl)cccc1Cl)C(=O)NCc1ccco1 [9-K06, 2-cyano-3-(2,6-dichlorophenyl)-N-[(furan-2-yl)methyl]prop-2-enamide]  82.189%
13. C=CC(=O)N(Cc1cccc2cccnc12)C1CCCN(CC)C1 (stereo not shown) [1-H11, N-(1-ethylpiperidin-3-yl)-N-[(quinolin-8-yl)methyl]prop-2-enamide]  85.2018%
14. C=CCNC(=O)C(C#N)=Cc1cnn(-c2ccc(Cl)cc2)c1 [9-M16, 3-[1-(4-chlorophenyl)-1H-pyrazol-4-yl]-2-cyano-N-(prop-2-en-1-yl)prop-2-enamide]  88.1713%
15. C=CC(=O)NC1(c2nc(C3CC3)cc(=O)[nH]2)CCCCC1 [3-H13, N-[1-(4-cyclopropyl-6-oxo-1,6-dihydropyrimidin-2-yl)cyclohexyl]prop-2-enamide]  88.7374%
16. C=CC(=O)N1CCC(C(=O)Nc2n[nH]c3cc(C#N)c(C)cc23)CC1 [3-J18, N-(6-cyano-5-methyl-1H-indazol-3-yl)-1-(prop-2-enoyl)piperidine-4-carboxamide]  89.2667%
17. O=C(CCl)NC1CN(c2ccc(C(F)(F)F)cc2)C1 [7-J06, 2-chloro-N-{1-[4-(trifluoromethyl)phenyl]azetidin-3-yl}acetamide]  90.5336%
18. Cc1cc(C(=O)CCl)c(C)n1-c1ccc(Cl)c(C(F)(F)F)c1 [10-L18, 2-chloro-1-{1-[4-chloro-3-(trifluoromethyl)phenyl]-2,5-dimethyl-1H-pyrrol-3-yl}ethan-1-one]  92.2657%
19. CCCCNC(=O)C(C#N)=Cc1c[nH]nn1 [9-L04, N-butyl-2-cyano-3-(1H-1,2,3-triazol-4-yl)prop-2-enamide]  92.6581%
20. C=CC(=O)NCC1CCCc2nccn21 (stereo not shown) [2-B15, N-({5H,6H,7H,8H-imidazo[1,2-a]pyridin-5-yl}methyl)prop-2-enamide]  93.2838%
21. O=C(CCl)NC1CCC2(CCC1(F)F)OCCO2 (stereo not shown) [5-G09, 2-chloro-N-{9,9-difluoro-1,4-dioxaspiro[4.6]undecan-8-yl}acetamide]  99.5272%
22. CC(Cl)C(=O)NC(=O)NCc1ccccc1 (stereo not shown) [6-P06, 1-benzyl-3-(2-chloropropanoyl)urea]  102.228%
23. C=CC(=O)NCc1nnc(C2CCOCC2)[nH]1 [2-M22, N-{[5-(oxan-4-yl)-4H-1,2,4-triazol-3-yl]methyl}prop-2-enamide]  103.32%
24. CCCCNC(=O)C(C#N)=Cc1cc(C)cc(C)c1 [9-C03, N-butyl-2-cyano-3-(3,5-dimethylphenyl)prop-2-enamide]  104.623%
25. C=CC(=O)N(C)[C@H]1CS(=O)(=O)C[C@@H]1O (racemic) [3-C15, rac-N-[(3R,4R)-4-hydroxy-1,1-dioxo-1lambda6-thiolan-3-yl]-N-methylprop-2-enamide]  105.852%
26. O=C(CCl)NCc1ccccc1OC(F)(F)F [4-L21, 2-chloro-N-{[2-(trifluoromethoxy)phenyl]methyl}acetamide]  110.416%
27. O=C(CCl)N1N=C(c2ccc3ccccc3c2)CC1c1ccccc1 (stereo not shown) [4-K22, 2-chloro-1-[3-(naphthalen-2-yl)-5-phenyl-4,5-dihydro-1H-pyrazol-1-yl]ethan-1-one]  112.659%
28. O=C(CCl)Nc1cc(C2CCCC2)nn1-c1ccccc1 [4-J03, 2-chloro-N-(3-cyclopentyl-1-phenyl-1H-pyrazol-5-yl)acetamide]  120.423%
